This is one part of the list. At the low end of the ranking the order means little.

The target in this assay is SIX1-Q177R homeodomain (UniProt Q15475). The assay is described as follows: universal protein binding microarray. The note with it: Universal all-10-mer PBM (8x60K, AMADID 030236), 300 nM GST-tagged protein, Alexa Fluor 488 anti-GST; buffer, salt, pH and temperature not stated; high values mean tight binding; most listed sequences are background and not binding sites; double strand, one strand shown.
Consider CGTGTAAC, for which the binding signal worked out at 0.43 E-score.
Then CGGCTTTA, with -0.188 E-score.
For GAATGTGA, the binding signal was -0.234 E-score.
The result for ATCGGTGC reads 0.204 E-score.
Then ACGCGGCG, with 0.229 E-score; and CAAGCGTG, with 0.165 E-score.
The result for AACTTCCA reads -0.212 E-score; that for ATGAGTGG, -0.0177 E-score; that for CGGTACGC, 0.00311 E-score.
With GATATACA, the binding signal was 0.146 E-score.
The result for GAGGATTA reads -0.22 E-score; that for AGGTGCAG, -0.0171 E-score; that for ACGACTGG, -0.047 E-score.
Then CCACCCAA, with 0.0684 E-score.
Then AAATTTCT, with -0.259 E-score.
Turning to CCCTTTAG, the binding signal is -0.0944 E-score.
Then CGCGCGGA, with -0.0815 E-score; and GGGTGGAA, with 0.0186 E-score.
The result for AGCGTCGC reads -0.0655 E-score; that for AGAGAGTA, -0.0441 E-score; that for GCCTATTA, 0.0123 E-score.
On to AAGCCACA, for which the binding signal was -0.0955 E-score.
The result for AGCCGTTC reads -0.182 E-score; that for CATAATGG, -0.107 E-score; that for AACAGTCT, -0.163 E-score.
For the sequence AGTGGCGC, the binding signal is -0.0825 E-score.
Then AACTATAG, with -0.14 E-score.
The result for AGGTGGTG reads 0.287 E-score.
For the sequence GTGGCCAA, the binding signal worked out at 0.0788 E-score.
The result for CAGATTAA reads -0.134 E-score; that for ACAGAAGG, -0.0447 E-score; that for ACTTAGTC, -0.273 E-score.
Then ATAATCAG, with -0.0717 E-score; and CGAACTCG, with 0.0839 E-score; and ATACATAT, with -0.137 E-score.
Then ACATGCAT, with -0.166 E-score.
As for ACGGCAAC, the binding signal turned out to be 0.0555 E-score.
The result for ATCCCCAA reads 0.233 E-score; that for CCTTCGAC, 0.0176 E-score; that for AAAGGAAA, -0.115 E-score.
Consider AGGTACGA, for which the binding signal came out at 0.0215 E-score.
Then CATAATCC, with -0.0496 E-score; and ATACCCAG, with 0.274 E-score; and ACGGCACG, with 0.00795 E-score.
The result for CAGTAAGA reads -0.211 E-score; that for CCCGAGTC, 0.171 E-score.
With ACATTTAT, the binding signal was -0.252 E-score.
Take GACATTTA: the binding signal is -0.0932 E-score.
For the sequence ATATGGAG, the binding signal amounted to 0.128 E-score.
Then GTGGGAAA, with 0.0144 E-score.
The result for GTGCGCGA reads 0.0776 E-score; that for CGCCAGCG, 0.0433 E-score.
Then ATGGTAGA, with -0.0925 E-score; and ACGCATCG, with -0.0566 E-score.
As for ACTATTAT, the binding signal was -0.111 E-score.
Then AGTTGTCC, with -0.171 E-score; and CTCCTCAC, with -0.0664 E-score.
The result for GCGTCAAC reads 0.121 E-score.
Consider GGTGTTGA, for which the binding signal was found to be 0.463 E-score.
Turning to CGGGACAG, the binding signal was -0.0892 E-score.
The result for GGAGATAC reads 0.122 E-score; that for GGCTTGTA, -0.0582 E-score; that for TGCGAACA, 0.158 E-score.
The result for ATGTTTGG reads -0.176 E-score.
Then AGTGCGCA, with -0.00783 E-score.
Consider CGTACGTC, for which the binding signal was -0.0348 E-score.
Then ATGCTGAA, with -0.269 E-score; and GACTGCTA, with -0.331 E-score.
As to CAGTGGAA, the binding signal is -0.222 E-score.
Take GAAGCACA: the binding signal is -0.0758 E-score.
The result for CAGCATAG reads -0.0735 E-score; that for GTGAGCAC, 0.159 E-score; that for CGCCATAC, -0.101 E-score.
Then AGACCGAG, with -0.0472 E-score; and ATATCCGA, with 0.0995 E-score.
Consider AAACAAAG, for which the binding signal was -0.13 E-score.
As to CTTAAGGC, the binding signal is -0.17 E-score.
Then ATAACCTG, with -0.0864 E-score; and GTAAAATA, with -0.211 E-score.
Turning to TCAATCGA, the binding signal is -0.142 E-score.
Consider GAGACAAA, for which the binding signal was -0.203 E-score.
The result for GAAGTCCA reads -0.149 E-score; that for AGAAGCAG, -0.205 E-score; that for AGCGGCAA, -0.247 E-score.
Consider CACCATTC, for which the binding signal is 0.23 E-score.
Then ATTGCCAC, with -0.215 E-score.
The result for CGAACCCC reads 0.238 E-score; that for ATCAAGGA, -0.152 E-score; that for GGCTAAAA, -0.17 E-score.
Consider AGTGCTAG, for which the binding signal is 0.116 E-score.
Turning to GCAACCTA, the binding signal is -0.14 E-score.
For the sequence TATGGAGA, the binding signal was -0.197 E-score.
As for AAGAAGTA, the binding signal was -0.0508 E-score.
With CCTCATGA, the binding signal turned out to be 0.0697 E-score.
Turning to ACACGAGG, the binding signal came out at 0.38 E-score.
In the case of ATCGCGGA, the binding signal is -0.135 E-score.
Then TCAAGCAA, with -0.249 E-score; and CAAATCAG, with -0.123 E-score; and AAGTGCGA, with -0.025 E-score.
As for ATACGTTA, the binding signal was -0.117 E-score.
GAACATTA: the binding signal is -0.0636 E-score.
The result for GATCAATC reads -0.0461 E-score.
Take ATTGGAGA: the binding signal is -0.207 E-score.
For GTTGAGGA, the binding signal is -0.221 E-score.
Turning to AACTGCCT, the binding signal was -0.239 E-score.
The result for AGGACGTC reads -0.256 E-score; that for CAGCGGAG, 0.142 E-score.
The result for AAATCTCC reads -0.138 E-score; that for CCCTTTAC, 0.166 E-score; that for AAAAGCAG, -0.157 E-score.
Then ACGACACC, with 0.487 E-score; and ATAGTATA, with 0.175 E-score.
As to AGTGAGCA, the binding signal came to 0.0888 E-score.
Then CTAGTGTC, with 0.407 E-score.
Turning to CCTGAACG, the binding signal was -0.0725 E-score.
Take TATGGGCA: the binding signal is -0.126 E-score.
The result for CGGGAGGC reads -0.192 E-score; that for TAAGGGAA, -0.137 E-score.
As for CTGAAGGC, the binding signal is -0.25 E-score.
As for AACCACCG, the binding signal is -0.115 E-score.
The result for GTGGCAAC reads -0.0844 E-score.
In the case of ACTAACCG, the binding signal was 0.0854 E-score.
For ACGTGTAG, the binding signal was 0.347 E-score.
Then GTCGGTTA, with -0.0594 E-score.
GATTGTGA: the binding signal was -0.172 E-score.
The result for AGCAGGAG reads -0.0517 E-score; that for ATCGACCG, -0.163 E-score; that for ATATCCTC, -0.103 E-score.
For the sequence CAGATCTA, the binding signal was -0.0572 E-score.
ACTGACAA: the binding signal was 0.153 E-score.
For CAAGATAC, the binding signal turned out to be 0.0571 E-score.
Regarding TAGCTGAA, the binding signal is -0.158 E-score.
As for ACGACGTG, the binding signal is 0.175 E-score.
The result for AATTTGTA reads -0.0319 E-score; that for CAGTCGAG, -0.113 E-score.
The result for ACGTATCA reads 0.0685 E-score; that for CATCGGTA, -0.134 E-score.
The result for AGTTCTCC reads -0.02 E-score.
Consider GAACTCGC, for which the binding signal is -0.0668 E-score.
The result for GCGTTCAC reads -0.0775 E-score; that for CTCCTGGA, -0.186 E-score; that for ACTGGATC, 0.155 E-score.
Then ATCCACTA, with 0.111 E-score.
In the case of AGTGGATA, the binding signal was 0.163 E-score.
With CCATATAC, the binding signal was found to be 0.0875 E-score.
The result for TGCAGCAA reads 0.0343 E-score.
The result for GCGCAGCC reads -0.238 E-score.
Turning to CTCTAGGC, the binding signal was -0.233 E-score.
The result for CGCAGCCG reads -0.122 E-score; that for AGAACAGG, 0.0565 E-score.
The result for CTCAGGAG reads -0.0655 E-score.
On to GGGCCATA, for which the binding signal is -0.18 E-score.
Then AAATCTGG, with -0.155 E-score; and GGGCTAGA, with -0.00423 E-score.
Turning to CAGGATAC, the binding signal came out at 0.168 E-score.
GCGTATTA: the binding signal was 0.021 E-score.
Then CAATCTCC, with -0.219 E-score.
The result for CATGAAAA reads -0.0754 E-score; that for ACAAAATA, -0.0687 E-score.
The result for ATTGAAAT reads -0.309 E-score; that for CACCACGA, 0.28 E-score.
As for GCGTAAGC, the binding signal is -0.0522 E-score.
The result for CTCCCCCA reads 0.176 E-score; that for AAATCGGC, -0.223 E-score; that for AGCGGTAT, 0.0516 E-score.
GCGTGAAC: the binding signal stood at 0.0454 E-score.
On to GGTTAGCA, for which the binding signal came out at 0.0241 E-score.
Then ACAAATGT, with -0.192 E-score; and GCACATAA, with -0.175 E-score.
Then CAAATCCG, with -0.214 E-score; and CGCGTCCG, with 0.072 E-score; and CATCACAC, with 0.317 E-score.
